Results as given in patent US20220289806A1 (CYTIMM THERAPEUTICS, published 2022).

B1: K35C-PEG20 (ligand)
chain: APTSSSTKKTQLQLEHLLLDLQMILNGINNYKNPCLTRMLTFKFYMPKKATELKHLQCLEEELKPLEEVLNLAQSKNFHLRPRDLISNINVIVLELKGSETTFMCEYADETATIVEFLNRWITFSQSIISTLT
modifications: maleimide-PEG 20K on Cys 35
notes: rhIL-2 (C125S) background, PEGylated at the introduced cysteine; not shown: His tag
B2: N30C-PEG20 (ligand)
chain: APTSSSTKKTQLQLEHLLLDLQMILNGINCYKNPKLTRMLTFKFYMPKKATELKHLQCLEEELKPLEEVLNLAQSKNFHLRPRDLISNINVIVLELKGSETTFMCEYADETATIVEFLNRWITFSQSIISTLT
modifications: maleimide-PEG 20K on Cys 30
notes: also called N30-P20; not shown: His tag
B3: N33C-PEG20 (ligand, not shown: small tags and cut ends)
chain: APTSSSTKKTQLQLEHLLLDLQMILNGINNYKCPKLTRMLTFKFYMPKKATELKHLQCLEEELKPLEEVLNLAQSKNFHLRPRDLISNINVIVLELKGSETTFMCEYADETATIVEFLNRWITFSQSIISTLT
modifications: maleimide-PEG 20K on Cys 33
B4: P65C-PEG20 (ligand)
chain: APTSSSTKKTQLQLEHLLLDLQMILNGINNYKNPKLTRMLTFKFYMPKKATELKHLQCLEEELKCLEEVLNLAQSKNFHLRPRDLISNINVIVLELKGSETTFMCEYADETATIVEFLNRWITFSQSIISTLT
modifications: maleimide-PEG 20K on Cys 65
notes: also called P65C-PEG20 conjugate; P65-P20; not shown: His tag
B5: R38C-PEG20 (ligand)
chain: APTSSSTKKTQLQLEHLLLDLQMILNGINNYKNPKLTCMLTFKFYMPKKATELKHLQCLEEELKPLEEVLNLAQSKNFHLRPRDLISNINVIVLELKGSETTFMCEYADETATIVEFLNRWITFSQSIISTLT
modifications: maleimide-PEG 20K on Cys 38
notes: also called R38-P20; not shown: His tag
B6: T41C-PEG20 (ligand)
chain: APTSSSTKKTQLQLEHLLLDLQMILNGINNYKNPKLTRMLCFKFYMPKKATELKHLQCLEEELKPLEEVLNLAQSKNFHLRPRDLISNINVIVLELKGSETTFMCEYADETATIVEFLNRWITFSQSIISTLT
modifications: maleimide-PEG 20K on Cys 41
notes: as for B1
B7: Y31C-PEG20 (ligand)
chain: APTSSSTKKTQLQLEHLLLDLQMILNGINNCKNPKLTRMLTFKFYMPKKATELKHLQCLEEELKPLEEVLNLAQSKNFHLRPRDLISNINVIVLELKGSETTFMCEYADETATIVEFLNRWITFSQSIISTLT
modifications: maleimide-PEG 20K on Cys 31
notes: rhIL-2 (C125S) background, PEGylated at the introduced cysteine; also called Y31C-PEG20 conjugate; not shown: His tag

What was measured:
[1] = biological target: T1, IL-2Rα in human Fc fusion protein format (ACROBiosystems) (human, UniProt P01589 22-217, limits assumed); assay: Octet QKe BLI, IL-2Rα-Fc captured on AHC sensors
T1 construct: Bought reagent, captured on anti-Human IgG Fc Capture (AHC) sensors; also called CD25; not shown: human Fc
T1 sequence (looked up): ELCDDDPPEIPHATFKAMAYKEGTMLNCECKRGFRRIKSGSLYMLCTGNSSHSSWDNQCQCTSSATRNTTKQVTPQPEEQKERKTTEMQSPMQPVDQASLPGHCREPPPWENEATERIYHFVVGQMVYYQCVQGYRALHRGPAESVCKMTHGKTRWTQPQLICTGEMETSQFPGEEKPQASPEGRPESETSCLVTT
Excerpt: (§1) IL-2Rα or IL-2Rβ in human Fc fusion protein format (ACROBiosystems) were captured on anti-Human IgG Fc Capture (AHC) sensors. […] Dissociation was detected following transfer of sensors into wells containing buffer alone. Data were collected and analyzed by Octet User Software. For analysis of the kinetics constants, 1:1 curve fitting model was used.

[2] = biological target: T2, IL-2Rαβγ on human T cells (human, UniProt P01589 22-272; P14784 27-551; P31785 23-369); assay: cell-based or functional assay
T2 sequence (looked up) 1: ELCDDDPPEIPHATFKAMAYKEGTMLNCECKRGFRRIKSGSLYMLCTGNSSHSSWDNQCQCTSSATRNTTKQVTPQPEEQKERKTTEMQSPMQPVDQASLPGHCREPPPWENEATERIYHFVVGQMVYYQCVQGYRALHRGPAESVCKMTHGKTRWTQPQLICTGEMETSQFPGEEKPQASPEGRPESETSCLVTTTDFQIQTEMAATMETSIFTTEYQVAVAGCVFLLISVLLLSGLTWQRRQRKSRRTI
T2 sequence (looked up) 2: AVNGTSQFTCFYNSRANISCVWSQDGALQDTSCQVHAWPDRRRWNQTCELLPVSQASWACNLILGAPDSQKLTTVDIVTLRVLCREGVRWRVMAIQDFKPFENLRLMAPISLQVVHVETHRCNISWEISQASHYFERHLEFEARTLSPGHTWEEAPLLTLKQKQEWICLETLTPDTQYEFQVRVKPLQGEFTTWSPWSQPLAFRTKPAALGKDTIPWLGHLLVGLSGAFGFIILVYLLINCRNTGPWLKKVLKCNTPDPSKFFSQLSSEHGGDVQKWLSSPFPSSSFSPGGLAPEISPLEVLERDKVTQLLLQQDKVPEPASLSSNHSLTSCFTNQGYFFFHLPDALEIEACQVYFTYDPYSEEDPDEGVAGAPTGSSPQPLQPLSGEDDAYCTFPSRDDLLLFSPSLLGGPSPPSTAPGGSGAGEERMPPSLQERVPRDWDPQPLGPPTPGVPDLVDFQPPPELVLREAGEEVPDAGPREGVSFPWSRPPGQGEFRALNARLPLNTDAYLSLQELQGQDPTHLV
T2 sequence (looked up) 3: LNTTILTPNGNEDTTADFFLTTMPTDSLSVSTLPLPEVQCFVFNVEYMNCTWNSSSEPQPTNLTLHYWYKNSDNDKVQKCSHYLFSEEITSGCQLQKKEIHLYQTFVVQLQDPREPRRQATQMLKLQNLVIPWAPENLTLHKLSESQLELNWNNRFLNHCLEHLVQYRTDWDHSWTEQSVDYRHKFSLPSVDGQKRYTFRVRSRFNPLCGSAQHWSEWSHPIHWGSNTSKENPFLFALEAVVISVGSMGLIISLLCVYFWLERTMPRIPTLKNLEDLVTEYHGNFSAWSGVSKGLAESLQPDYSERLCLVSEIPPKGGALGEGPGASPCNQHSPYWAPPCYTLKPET

[3] = biological target: T3, IL-2Rβγ on human CD8+CD45RA+CD25low naïve T cells (human, UniProt P14784 27-551; P31785 23-369); assay: cell-based or functional assay
T3 sequence (looked up) 1: T2 sequence (looked up) 2
T3 sequence (looked up) 2: T2 sequence (looked up) 3

[4] = biological target: T1, IL-2Rα in human Fc fusion protein …; assay: Octet QKe BLI, IL-2Rα-Fc on AHC sensors, 1:1 fit
Excerpt: as §1

[5] = biological target: T1, IL-2Rα in human Fc fusion protein …; assay: Octet QKe (biolayer interferometry): IL-2Rα-human Fc on AHC sensors, serial dilutions of the IL-2 variant [cont.]
Excerpt: as §1

Binder | binding result [1] | EC50 of STAT5 phosphorylation, CD25+CD4+ T (IL-2Rαβγ) [2] | EC50 of STAT5 phosphorylation, CD25-CD8+ naïve T (IL-2Rβγ) [3] | Kd [4] | koff [4] | kon [4] | binding result [5]
B1 | no binding |  |  |  |  |  | 
B2 |  | 0.26 µg/mL | 17.3 µg/mL | 117 nM | 0.0697 s⁻¹ | 593000 M⁻¹ s⁻¹ | 
B3 |  | 0.31 µg/mL | 6.34 µg/mL |  |  |  | 
B4 |  | 1.36 µg/mL | 3.98 µg/mL |  |  |  | no binding (tested: not printed)
B5 | no binding | 3.39 µg/mL | 8.19 µg/mL |  |  |  | 
B6 | no binding |  |  |  |  |  | 
B7 |  |  |  | 73 nM | 0.0279 s⁻¹ | 383000 M⁻¹ s⁻¹ | 
